Assay results: patent publication US12338199B2, “Bis-octahydrophenanthrene carboxamides and protein conjugates thereof” (REGENERON PHARMACEUTICALS, INC., priority 2017, dated 2025)

Biological target: T1, His9-hMSR1 (human MSR1 extracellular domain) (Homo sapiens, UniProt P21757)
T1 construct: human MSR1 extracellular domain expressed with a N-terminal nonahistidine tag; purchased R&D Systems 2708-MS
T1 sequence (P21757 77-451 limits assumed): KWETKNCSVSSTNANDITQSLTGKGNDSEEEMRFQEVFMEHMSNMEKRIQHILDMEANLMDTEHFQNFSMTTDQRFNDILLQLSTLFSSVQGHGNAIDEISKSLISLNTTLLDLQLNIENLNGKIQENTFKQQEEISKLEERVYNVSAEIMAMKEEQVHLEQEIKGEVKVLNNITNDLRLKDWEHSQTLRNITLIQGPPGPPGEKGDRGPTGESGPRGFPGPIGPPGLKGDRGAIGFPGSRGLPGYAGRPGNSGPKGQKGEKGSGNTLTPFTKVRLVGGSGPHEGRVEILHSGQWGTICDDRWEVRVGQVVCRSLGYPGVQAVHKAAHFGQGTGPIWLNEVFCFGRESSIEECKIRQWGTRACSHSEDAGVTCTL
Assay: Biacore surface plasmon resonance binding kinetics
Settings: 25° C.
Protocol: The MSR1 antibodies disclosed herein were conjugated to various liver X receptor (LXR) payloads. This example describes how equilibrium dissociation constant (KD) values for human MSR1 reagents binding to human anti-MSR1 antibody-drug conjugates and their corresponding unconjugated parental antibodies were determined using a real-time surface plasmon resonance-based Biacore T200 biosensor.
All binding studies were performed in 10 mM HEPES, 300 mM NaCl, 3 mM EDTA, and 0.05% v/v Surfactant Tween-20, pH 7.4 (HBS-ET) running buffer at 25° C. The Biacore CM4 sensor chip surface was first derivatized by amine coupling with the goat anti-human Fcγ specific polyclonal antibody (Jackson ImmunoResearch Laboratories, Cat # BR-1008-39) to capture anti-MSR1 monoclonal antibodies. Binding studies were performed on human MSR1 extracellular domain expressed with a N-terminal nonahistidine tag (His9-hMSR1; R&D Systems, Cat #2708-MS).
The association rate (ka) and dissociation rate (kd) were determined by fitting the real-time binding sensorgrams to a 1:1 binding model with mass transport limitation using Scrubber 2.0c curve-fitting software. Binding dissociation equilibrium constant (KD) and dissociative half-life (t½) were calculated from the kinetic rates as: […]

B1: H1H27751P-N297Q (antibody, V domains shown)
VH: EVQLVESGGGLVQPGGSLRLSCAASGFTFSNYAMHWVRQAPGKGLEYVSAISSNGGSTYYADSVKGRITISRDNSKNTLYLQMGSLRAEDMAVYYCARGRPYYYYFGMDVWGQGTTVTVSS
VL: [about 100 residues not shown]QFPLNFGGGTKVEIKR
- kd (* = no dissociation observed, kd fixed at 1.00E−05): 0.000175 s⁻¹
- Kd (calculated from the kinetic rates, read-out: KD (Molar)): 833 pM
- ka (His9-hMSR1 binding to captured antibody): 210000 M⁻¹ s⁻¹
